Test results as given in paper PMC12820563.
This is one part of the list. The list includes weakly bound sequences.

Target: T1, MBP-FoxP3dN (UniProt Q99JB6)
T1 sequence: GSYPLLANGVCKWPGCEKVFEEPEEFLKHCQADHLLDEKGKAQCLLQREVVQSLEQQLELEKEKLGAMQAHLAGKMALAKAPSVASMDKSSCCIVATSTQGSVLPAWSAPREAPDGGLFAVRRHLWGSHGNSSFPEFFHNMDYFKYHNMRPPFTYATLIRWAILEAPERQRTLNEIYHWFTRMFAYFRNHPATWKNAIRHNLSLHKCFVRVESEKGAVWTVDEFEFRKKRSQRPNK
Assay: PD-seq (MBP pull-down with sequencing)
Conditions: 20 mM Tris-HCl pH 7.5, 100 mM NaCl, 1.5 mM MgCl2, 0.4 uM protein, 0.1 uM dsDNA library, 30 min, room temperature, amylose pull-down; high values mean tight binding; double strand, one strand shown

Sequence | binding signal (RPM ratio (pull-down/input))
GATGATTGTTCTCCCAGCTGATGAATTGTAGATGTCGAGTAAACAAATTTTCCTAATCTTTCTGTTCAAGCGCCATCTAC | 0.628
GATGATTGTTCTCCCAGCTGATGAATTCAGCGGGTCGAGTAAACAAATTTTCCTAATCTTTCTGTTCAAGCGCCATCTAC | 0.441
GATGATTGTTCTCCCAGCTGATGAATTAGCACGCTCGAGTAAACAAATTTTCCTAATCTTTCTGTTCAAGCGCCATCTAC | 0.482
GATGATTGTTCTCCCAGCTGATGAATTGTGAGCATCGAGTAAACAAATTTTCCTAATCTTTCTGTTCAAGCGCCATCTAC | 1.37
GATGATTGTTCTCCCAGCTGATGAATTATCCACTTCGAGTAAACAAATTTTCCTAATCTTTCTGTTCAAGCGCCATCTAC | 0.334
GATGATTGTTCTCCCAGCTGATGAATTCGAACCTTCGAGTAAACAAATTTTCCTAATCTTTCTGTTCAAGCGCCATCTAC | 0.278
GATGATTGTTCTCCCAGCTGATGAATTTTCCCCATCGAGTAAACAAATTTTCCTAATCTTTCTGTTCAAGCGCCATCTAC | 0.241
GATGATTGTTCTCCCAGCTGATGAATTTCCCCATTCGAGTAAACAAATTTTCCTAATCTTTCTGTTCAAGCGCCATCTAC | 0.261
GATGATTGTTCTCCCAGCTGATGAATTGGTTTTCTCGAGTAAACAAATTTTCCTAATCTTTCTGTTCAAGCGCCATCTAC | 2.95
GATGATTGTTCTCCCAGCTGATGAATTCGATCGATCGAGTAAACAAATTTTCCTAATCTTTCTGTTCAAGCGCCATCTAC | 0.283
GATGATTGTTCTCCCAGCTGATGAATTGCTTTGTTCGAGTAAACAAATTTTCCTAATCTTTCTGTTCAAGCGCCATCTAC | 1.58
GATGATTGTTCTCCCAGCTGATGAATTTTCACGTTCGAGTAAACAAATTTTCCTAATCTTTCTGTTCAAGCGCCATCTAC | 0.284
GATGATTGTTCTCCCAGCTGATGAATTATTATCGTCGAGTAAACAAATTTTCCTAATCTTTCTGTTCAAGCGCCATCTAC | 0.943
GATGATTGTTCTCCCAGCTGATGAATTCCTACCCTCGAGTAAACAAATTTTCCTAATCTTTCTGTTCAAGCGCCATCTAC | 0.239
GATGATTGTTCTCCCAGCTGATGAATTCCCAAGCTCGAGTAAACAAATTTTCCTAATCTTTCTGTTCAAGCGCCATCTAC | 0.226
GATGATTGTTCTCCCAGCTGATGAATTACTGCAATCGAGTAAACAAATTTTCCTAATCTTTCTGTTCAAGCGCCATCTAC | 2.62
GATGATTGTTCTCCCAGCTGATGAATTTTCCCTATCGAGTAAACAAATTTTCCTAATCTTTCTGTTCAAGCGCCATCTAC | 0.258
GATGATTGTTCTCCCAGCTGATGAATTGCGAGACTCGAGTAAACAAATTTTCCTAATCTTTCTGTTCAAGCGCCATCTAC | 0.8
GATGATTGTTCTCCCAGCTGATGAATTGGCTGATTCGAGTAAACAAATTTTCCTAATCTTTCTGTTCAAGCGCCATCTAC | 0.802
GATGATTGTTCTCCCAGCTGATGAATTTTCAGCTTCGAGTAAACAAATTTTCCTAATCTTTCTGTTCAAGCGCCATCTAC | 0.287
GATGATTGTTCTCCCAGCTGATGAATTACAATATTCGAGTAAACAAATTTTCCTAATCTTTCTGTTCAAGCGCCATCTAC | 0.962

Sequence | binding signal (RPM ratio (pull-down/input))
GATGATTGTTCTCCCAGCTGATGAATTTTCTGATTCGAGTAAACAAATTTTCCTAATCTTTCTGTTCAAGCGCCATCTAC | 0.284
GATGATTGTTCTCCCAGCTGATGAATTGCTCCCCTCGAGTAAACAAATTTTCCTAATCTTTCTGTTCAAGCGCCATCTAC | 0.458
GATGATTGTTCTCCCAGCTGATGAATTAAACCGCTCGAGTAAACAAATTTTCCTAATCTTTCTGTTCAAGCGCCATCTAC | 0.279
GATGATTGTTCTCCCAGCTGATGAATTAAGTAACTCGAGTAAACAAATTTTCCTAATCTTTCTGTTCAAGCGCCATCTAC | 1.58
GATGATTGTTCTCCCAGCTGATGAATTGCTCAACTCGAGTAAACAAATTTTCCTAATCTTTCTGTTCAAGCGCCATCTAC | 0.454
GATGATTGTTCTCCCAGCTGATGAATTCGGGCCATCGAGTAAACAAATTTTCCTAATCTTTCTGTTCAAGCGCCATCTAC | 1.05
GATGATTGTTCTCCCAGCTGATGAATTTAACGTATCGAGTAAACAAATTTTCCTAATCTTTCTGTTCAAGCGCCATCTAC | 0.792
GATGATTGTTCTCCCAGCTGATGAATTTATGTACTCGAGTAAACAAATTTTCCTAATCTTTCTGTTCAAGCGCCATCTAC | 5.18
GATGATTGTTCTCCCAGCTGATGAATTTGGTTAATCGAGTAAACAAATTTTCCTAATCTTTCTGTTCAAGCGCCATCTAC | 0.489
GATGATTGTTCTCCCAGCTGATGAATTACGCGAATCGAGTAAACAAATTTTCCTAATCTTTCTGTTCAAGCGCCATCTAC | 0.382
GATGATTGTTCTCCCAGCTGATGAATTCCTACCTTCGAGTAAACAAATTTTCCTAATCTTTCTGTTCAAGCGCCATCTAC | 0.26
GATGATTGTTCTCCCAGCTGATGAATTTGGTTACTCGAGTAAACAAATTTTCCTAATCTTTCTGTTCAAGCGCCATCTAC | 3.22
GATGATTGTTCTCCCAGCTGATGAATTACTGACTTCGAGTAAACAAATTTTCCTAATCTTTCTGTTCAAGCGCCATCTAC | 0.421
GATGATTGTTCTCCCAGCTGATGAATTCGCACGCTCGAGTAAACAAATTTTCCTAATCTTTCTGTTCAAGCGCCATCTAC | 0.507
GATGATTGTTCTCCCAGCTGATGAATTAGTACGTTCGAGTAAACAAATTTTCCTAATCTTTCTGTTCAAGCGCCATCTAC | 0.728
GATGATTGTTCTCCCAGCTGATGAATTTAGGTGATCGAGTAAACAAATTTTCCTAATCTTTCTGTTCAAGCGCCATCTAC | 0.601
GATGATTGTTCTCCCAGCTGATGAATTATAGGCCTCGAGTAAACAAATTTTCCTAATCTTTCTGTTCAAGCGCCATCTAC | 0.536
GATGATTGTTCTCCCAGCTGATGAATTCGCAGGCTCGAGTAAACAAATTTTCCTAATCTTTCTGTTCAAGCGCCATCTAC | 0.326
GATGATTGTTCTCCCAGCTGATGAATTTGAACTCTCGAGTAAACAAATTTTCCTAATCTTTCTGTTCAAGCGCCATCTAC | 0.423
GATGATTGTTCTCCCAGCTGATGAATTGCCTTCCTCGAGTAAACAAATTTTCCTAATCTTTCTGTTCAAGCGCCATCTAC | 0.773
GATGATTGTTCTCCCAGCTGATGAATTGCGCGAATCGAGTAAACAAATTTTCCTAATCTTTCTGTTCAAGCGCCATCTAC | 0.672

Sequence | binding signal (RPM ratio (pull-down/input))
GATGATTGTTCTCCCAGCTGATGAATTACTCGATTCGAGTAAACAAATTTTCCTAATCTTTCTGTTCAAGCGCCATCTAC | 0.266
GATGATTGTTCTCCCAGCTGATGAATTATACGGATCGAGTAAACAAATTTTCCTAATCTTTCTGTTCAAGCGCCATCTAC | 0.294
GATGATTGTTCTCCCAGCTGATGAATTTATTTGATCGAGTAAACAAATTTTCCTAATCTTTCTGTTCAAGCGCCATCTAC | 2.62
GATGATTGTTCTCCCAGCTGATGAATTAGTACACTCGAGTAAACAAATTTTCCTAATCTTTCTGTTCAAGCGCCATCTAC | 0.992
GATGATTGTTCTCCCAGCTGATGAATTCTAGATCTCGAGTAAACAAATTTTCCTAATCTTTCTGTTCAAGCGCCATCTAC | 0.279
GATGATTGTTCTCCCAGCTGATGAATTAATCATATCGAGTAAACAAATTTTCCTAATCTTTCTGTTCAAGCGCCATCTAC | 0.623
GATGATTGTTCTCCCAGCTGATGAATTGGAGGCGTCGAGTAAACAAATTTTCCTAATCTTTCTGTTCAAGCGCCATCTAC | 0.855
GATGATTGTTCTCCCAGCTGATGAATTTTTAGCTTCGAGTAAACAAATTTTCCTAATCTTTCTGTTCAAGCGCCATCTAC | 0.264
GATGATTGTTCTCCCAGCTGATGAATTAACCGGTTCGAGTAAACAAATTTTCCTAATCTTTCTGTTCAAGCGCCATCTAC | 0.239
GATGATTGTTCTCCCAGCTGATGAATTCCTTAAATCGAGTAAACAAATTTTCCTAATCTTTCTGTTCAAGCGCCATCTAC | 0.203
GATGATTGTTCTCCCAGCTGATGAATTGTAGGCCTCGAGTAAACAAATTTTCCTAATCTTTCTGTTCAAGCGCCATCTAC | 0.674
GATGATTGTTCTCCCAGCTGATGAATTAAGTCTTTCGAGTAAACAAATTTTCCTAATCTTTCTGTTCAAGCGCCATCTAC | 0.618
GATGATTGTTCTCCCAGCTGATGAATTTGACTTGTCGAGTAAACAAATTTTCCTAATCTTTCTGTTCAAGCGCCATCTAC | 0.698
GATGATTGTTCTCCCAGCTGATGAATTGCCTTCGTCGAGTAAACAAATTTTCCTAATCTTTCTGTTCAAGCGCCATCTAC | 0.804
GATGATTGTTCTCCCAGCTGATGAATTCCCGAGCTCGAGTAAACAAATTTTCCTAATCTTTCTGTTCAAGCGCCATCTAC | 0.177
GATGATTGTTCTCCCAGCTGATGAATTATATCTTTCGAGTAAACAAATTTTCCTAATCTTTCTGTTCAAGCGCCATCTAC | 0.541
GATGATTGTTCTCCCAGCTGATGAATTTGGGGAGTCGAGTAAACAAATTTTCCTAATCTTTCTGTTCAAGCGCCATCTAC | 0.404
GATGATTGTTCTCCCAGCTGATGAATTACCTCCGTCGAGTAAACAAATTTTCCTAATCTTTCTGTTCAAGCGCCATCTAC | 0.243
GATGATTGTTCTCCCAGCTGATGAATTTACTTGCTCGAGTAAACAAATTTTCCTAATCTTTCTGTTCAAGCGCCATCTAC | 1.61
GATGATTGTTCTCCCAGCTGATGAATTTTCGGCCTCGAGTAAACAAATTTTCCTAATCTTTCTGTTCAAGCGCCATCTAC | 0.395
GATGATTGTTCTCCCAGCTGATGAATTTAGATGATCGAGTAAACAAATTTTCCTAATCTTTCTGTTCAAGCGCCATCTAC | 0.728
